Hit rate of the full screen: of about 150,000 compounds, about 540 (0.36%) showed an effect of 50% or more. The list shows a part of the results.
What follows are molecules tested on Plasmodium falciparum (assay: Primary screen in NF54 nanoGlo assay, in single point, at 2uM, 72h; a lower Z score goes with more inhibition). Details: timepoint 72 hour.
Type: functional, Erythrocyte
In the case of `CCc1ccc(CS(=O)(=O)NC(=O)C2(COC)CCC2)cc1`, the “% Inhibition” value is reported as -15% and the Z score is reported as 1.68. `CC(C)c1cccc2c1CCN(CC(=O)N1CCC(C(=O)N3CCCC3)CC1)C2` was tested, and the “% Inhibition” value was -12% and the Z score was 1.18. For `COC[C@@H]1[C@H](NC(=O)c2ccccc2-c2ccccc2)[C@H]2CCO[C@H]21`, the “% Inhibition” value was -22% and the Z score was 2.23. In the case of `C[C@H]1CCCCN1S(=O)(=O)c1ccc2c(cnc(=O)n2CC(=O)Nc2ccccc2)c1`, the “% Inhibition” value is reported as 2% and the Z score is reported as -0.32. With `NC(=O)c1c(NCC(=O)NCc2ccc(F)cc2)sc2c1CCCC2` the “% Inhibition” value was -33% and the Z score was 3.32. `O=C(NC(c1nnn(CC2CCCO2)n1)C1CC1)c1ccccc1` (stereo not drawn) was tested, and the “% Inhibition” value was -12% and the Z score was 2.19. `O=C(c1cccc(F)c1)N1CCN(CC2CC3C=CC2C3)CC1` (stereo not drawn) was tested, and the “% Inhibition” value was -7% and the Z score was 0.97. `FC(F)(F)c1ccc(N2CCC(n3ccnn3)CC2)nn1` was tested, and the “% Inhibition” value was 0% and the Z score was -0.04. For `Cc1ccc(C(=O)NCc2ccc(F)c(Cn3ccnc3)c2)c(=O)[nH]1`, the “% Inhibition” value was -1% and the Z score was 0.1. `CC(C)C(=O)N1CCC([C@@H]2CN(Cc3ccsc3)C[C@H]2CO)CC1` was tested, and the “% Inhibition” value was 0% and the Z score was 0.04. In the case of `Cc1cc(Cl)ccc1-n1ncc2c(N3CCCC3)ncnc21`, the “% Inhibition” value is reported as -8% and the Z score is reported as 0.92. With `Cc1nn(C)cc1-c1csc(CC2CC2)n1` the “% Inhibition” value was -3% and the Z score was 0.3. With `CCC(CC)C(=O)N(CC)c1ccccc1` the “% Inhibition” value was -13% and the Z score was 1.49. With `CC1CC2(C)Oc3ccccc3C3OCC1(COC(=O)Nc1ccccc1)[C@@H](C)C32` (stereo partly drawn) the “% Inhibition” value was -14% and the Z score was 1.84. In the case of `O=C1C2C3C=CC([C@@H]2C(=O)N1Cc1ccccc1)C31CC1` (stereo partly drawn), the “% Inhibition” value is reported as -6% and the Z score is reported as 0.81. With `O=C(CCc1cncnc1)NC[C@H](N1CCOCC1)C(F)(F)F` the “% Inhibition” value was -7% and the Z score was 1.1. In the case of `Cc1c(S(=O)(=O)N2CCN(CC(F)(F)F)C[C@H](C)C2)cnn1C`, the “% Inhibition” value is reported as 6% and the Z score is reported as -0.85. For `COc1ccccc1[C@H](CNC(=O)c1cccc(S(=O)(=O)N2CCCc3ccccc32)c1)N(C)C`, the “% Inhibition” value was 6% and the Z score was -1.18. For `Cc1cccc(C(=O)Nc2ccccc2C(=O)OCc2c(C)noc2C)c1`, the “% Inhibition” value was 6% and the Z score was -0.82. `CN1CCN(c2ncnc(Oc3ccc(F)cc3F)c2N)CC1` was tested, and the “% Inhibition” value was -4% and the Z score was 0.41. With `C=CCNCCOc1c(C)cc(C)cc1CC=C` the “% Inhibition” value was -4% and the Z score was 0.55. For `CNC(=O)[C@H]1CCN(C(=O)c2cncc(Cl)c2)C1`, the “% Inhibition” value was 0% and the Z score was 0.01. For `Cc1cc(C)cc(NC(=O)COc2cccc(-c3nc(C)no3)c2)c1`, the “% Inhibition” value was -7% and the Z score was 1.41. With `CN1CCC(CNC(=O)c2ccncc2Cl)C1c1cccs1` (stereo not drawn) the “% Inhibition” value was 8% and the Z score was -1.25. In the case of `CN(C)C(=O)c1cnc(NC[C@H]2CCCn3ccnc32)c(Cl)c1`, the “% Inhibition” value is reported as -3% and the Z score is reported as 0.42. For `CCn1cc(CN2CC[C@@]3(CCCN(CC4CC4)C3=O)C2)cc1C#N`, the “% Inhibition” value was -26% and the Z score was 2.3. `CCOc1cc2c3c(c1)-c1c(ssc1=S)C(C)(C)N3C(=O)C2=O` was tested, and the “% Inhibition” value was -1% and the Z score was 0.18. For `Cc1ccc(-c2nc(CN3CCC[C@H]3c3ccsc3)co2)c(C)c1`, the “% Inhibition” value was -13% and the Z score was 1.19. For `O=S1(=O)CCN(c2ccc3ccc(Cl)c(Cl)c3n2)CC1`, the “% Inhibition” value was -6% and the Z score was 0.76. With `COCC[C@]1(NS(=O)(=O)c2ccccc2)CCN(Cc2c(C)noc2C)C1` the “% Inhibition” value was -5% and the Z score was 0.63. With `O=C(Cn1c(=O)ncc2c1cnn2[C@H]1CCS(=O)(=O)C1)c1ccc(Cl)cc1Cl` the “% Inhibition” value was -17% and the Z score was 2.24. `CC1(S(=O)(=O)N2CCC[C@H](c3n[nH]c(C4CC4)n3)C2)CC1` was tested, and the “% Inhibition” value was 1% and the Z score was -0.12. With `CC1CCCC1OCC(O)CN1CCCCC1` (stereo not drawn) the “% Inhibition” value was -15% and the Z score was 1.72. In the case of `CC[C@@H](C(=O)N1CCN(c2ccc(F)cc2)CC1)N1CCN(Cc2ccc(F)cc2)C(=O)C1=O`, the “% Inhibition” value is reported as -6% and the Z score is reported as 1.02. With `O=C1CC[C@@]2(CCN(C(=O)C3(c4ccccc4)CCCC3)C2)N1` the “% Inhibition” value was -8% and the Z score was 1.11. For `CC(=O)N1CCN(C[C@H](O)COC2CCCCC2)CC1`, the “% Inhibition” value was -16% and the Z score was 2.14. `Cc1cc(N2CCN(c3ccccc3Cl)CC2)c2nncn2n1` was tested, and the “% Inhibition” value was -5% and the Z score was 0.53. With `CCOC1CC(N(C)C(=O)c2ccc(NC(C)=O)cc2)C1(C)C` (stereo not drawn) the “% Inhibition” value was -10% and the Z score was 0.98. `Cc1ccc(-n2c(=O)n(CC(=O)NCCN3CCOCC3)c3cccnc32)cc1` was tested, and the “% Inhibition” value was -3% and the Z score was 0.33. With `Cc1cc(CNC(=O)c2sc(-c3cccs3)nc2C)ncn1` the “% Inhibition” value was -10% and the Z score was 2.02. In the case of `CCc1nnc2nc(N3CCN(C(=O)Cc4cccs4)CC3)cc(C)n12`, the “% Inhibition” value is reported as -11% and the Z score is reported as 2.02. In the case of `O=C(c1cccnc1)N1CCO[C@H](c2ccccc2)C1`, the “% Inhibition” value is reported as 2% and the Z score is reported as -0.35. With `CC[C@H](C)Oc1cccc(CN2CCC3(CC2)CN(C)CCN3C)c1` the “% Inhibition” value was -11% and the Z score was 1.51. In the case of `Cc1nc(C)n(C2CN(S(=O)(=O)c3ccc4scnc4c3)C2)n1`, the “% Inhibition” value is reported as 0% and the Z score is reported as -0.06. In the case of `CNc1cc(C(=O)N(Cc2noc(C)n2)C(C)C)ccn1`, the “% Inhibition” value is reported as -22% and the Z score is reported as 2.23. `CCC(C)(C)C(=O)NC1CCN(C2=NS(=O)(=O)C(c3ccc(C(C)C)cc3)=C2C)CC1` was tested, and the “% Inhibition” value was -22% and the Z score was 4.39. For `O=C(c1ncnc2ccsc12)N1CCCC[C@@]12CCOC2`, the “% Inhibition” value was -9% and the Z score was 1.23. For `O=C([C@H]1CCS(=O)(=O)C1)N(Cc1ccoc1)C1CCCCC1`, the “% Inhibition” value was -7% and the Z score was 0.88. With `Nc1c2c(-c3cccc(Cl)c3)nc(NCc3ccccc3)nc2nn1-c1ccccc1` the “% Inhibition” value was 3% and the Z score was -0.39. `CN(C(=O)c1cc2ccccc2[nH]1)[C@@H]1CCC[C@H]1O` was tested, and the “% Inhibition” value was 2% and the Z score was -0.18. With `COc1ccc(-c2noc(CN3c4ccccc4CC[C@@H]3C)n2)cc1OC` the “% Inhibition” value was -3% and the Z score was 0.33. `CCCS(=O)(=O)c1c(S(=O)(=O)CCC)c2c3ccccc3ccn2c1C(=O)c1ccc(C)cc1` was tested, and the “% Inhibition” value was -11% and the Z score was 1.01. `CC(=O)Nc1ccc(-c2ccccc2-c2nnc(C)o2)cc1` was tested, and the “% Inhibition” value was -8% and the Z score was 0.9. `Cc1nc(NC2CCN(Cc3ccccc3)CC2)[nH]c(=O)c1C` was tested, and the “% Inhibition” value was -26% and the Z score was 2.29. With `COc1cc(OC)cc(C(=O)N/C(=N/c2ccc(C)cc2)NC[C@H]2CCCO2)c1` the “% Inhibition” value was 4% and the Z score was -0.77. For `CCn1ncc(-c2noc3nc(C4CC4)cc(C(=O)N[C@@H](C)CN4CCCCC4)c23)c1C`, the “% Inhibition” value was 5% and the Z score was -0.77. In the case of `O=C(Cc1cccnc1)N1CCc2c(c(C(=O)N3CCC(O)CC3)nn2CCCc2ccccc2)C1`, the “% Inhibition” value is reported as -12% and the Z score is reported as 1.58. With `O=C(O)[C@H]1CCN(C(=O)c2ccc(Oc3ccncc3)c(Cl)c2)C1` the “% Inhibition” value was -1% and the Z score was 0.26. In the case of `Cc1ccc(S(=O)(=O)c2cn(CC(=O)Nc3cccc(C)c3C)c3nc(C)ccc3c2=O)cc1`, the “% Inhibition” value is reported as -14% and the Z score is reported as 1.4. For `Nc1cc2c(cc1NC(=O)c1ccc3c(c1)CCNCC3)OCO2`, the “% Inhibition” value was 18% and the Z score was -2.5. In the case of `CCCNC(=O)CNC(=O)NC1CC1C1CCCCC1` (stereo not drawn), the “% Inhibition” value is reported as 1% and the Z score is reported as -0.15. For `Cc1nnc(CC(=O)N2CCCCC[C@H]2c2noc(C(C)C)n2)o1`, the “% Inhibition” value was -4% and the Z score was 0.55. For `CC(C)N1CCC(Nc2ccc(C3CC3)c(F)c2)CC1`, the “% Inhibition” value was -15% and the Z score was 1.92. `CCC1CN(C(=O)c2ccccc2OC2CC2)CC(CC)O1` (stereo not drawn) was tested, and the “% Inhibition” value was 10% and the Z score was -2.04. For `Cc1cc(CN(C)C(=O)c2ncn(C(C)(C)C)n2)no1`, the “% Inhibition” value was -15% and the Z score was 2.9. `CN(CC(=O)Nc1sc2c(c1C(N)=O)CCCC2)Cc1cnn(C)c1` was tested, and the “% Inhibition” value was -5% and the Z score was 0.76. In the case of `CC(C)C(=O)N(Cc1cc(-c2ccccc2)on1)C1CC1`, the “% Inhibition” value is reported as -13% and the Z score is reported as 1.55. With `COc1ccc(C(=O)N2CCC(n3cc(-c4nc(C)no4)nn3)CC2)c(OC)c1` the “% Inhibition” value was -2% and the Z score was 0.24. For `C[C@@H](COc1ccccc1)NC(=O)Cc1cccs1`, the “% Inhibition” value was -9% and the Z score was 1.31. In the case of `Cc1cc(CNC[C@H](C)c2c(C)noc2C)c2c(n1)CCCC2`, the “% Inhibition” value is reported as -1% and the Z score is reported as 0.2. With `Cc1nc(NC(=O)C(C)(C)S(=O)(=O)C2CC2)cc(C2CC2)n1` the “% Inhibition” value was 14% and the Z score was -1.64. For `CC[C@H](C)NC(=O)c1cccc(C)c1C`, the “% Inhibition” value was -7% and the Z score was 0.97. `CCOC(=O)N1CCC(n2cnc3ccncc3c2=O)CC1` was tested, and the “% Inhibition” value was -14% and the Z score was 2.06. With `CC(C)(CN1CCCN(CC(=O)N2CCCC2)CC1)c1ccccc1` the “% Inhibition” value was -11% and the Z score was 1.42. `COC(=O)c1c(C)nn(Cc2cccc3cccnc23)c1C` was tested, and the “% Inhibition” value was -12% and the Z score was 1.08. `O=C(c1scnc1C(F)F)N1CCC[C@@H]2O[C@H](c3ccccc3)C[C@@H]21` was tested, and the “% Inhibition” value was -9% and the Z score was 1.28. In the case of `CCOC(=O)N1CCC([C@H](C)NC(=O)c2oc(CC3CC3)nc2C)CC1`, the “% Inhibition” value is reported as -7% and the Z score is reported as 1.03. With `Cc1cc(-c2cccc(F)c2)nnc1NC[C@H]1CCCS(=O)(=O)C1` the “% Inhibition” value was -2% and the Z score was 0.21. With `CC(C)=CCC/C(C)=C/CNC(=O)CCn1ccc(=O)[nH]c1=O` the “% Inhibition” value was 2% and the Z score was -0.4. With `COc1ccc([C@H](C(=O)O)N(C)Cc2ccnc3ccccc23)c(OC)c1` the “% Inhibition” value was -16% and the Z score was 2.23. In the case of `CC1(NC(=O)NC2CCCc3ccc(F)cc32)CCOC1` (stereo not drawn), the “% Inhibition” value is reported as -8% and the Z score is reported as 1.09. In the case of `COCCNC(=O)N[C@@H](C)Cc1ccco1`, the “% Inhibition” value is reported as -17% and the Z score is reported as 2.53. For `Cc1cccc([C@H]2C(=O)NCCN2C(=O)Cn2nc(C)cc2C)c1`, the “% Inhibition” value was -13% and the Z score was 2.49. With `CCc1c(C)nc(N(CC)CC)c(C#N)c1C#N` the “% Inhibition” value was -1% and the Z score was 0.1.
